SMILES strings stand for the structures. Hit rate of the full screen: of about 48,000 compounds, about 1,200 (2.5%) were called active. Another 2% or so got no clear call; they are omitted.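 The calls were made as follows: active = activation of at least 60% and not above a set upper limit (about 1 call in 100 departs from these limits); inconclusive = activation of 40% to 60%, or above that upper limit; inactive = activation under 40%.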 This is one part of the list.

Chain of UniProt O75388 (O75388 whole entry, looked up): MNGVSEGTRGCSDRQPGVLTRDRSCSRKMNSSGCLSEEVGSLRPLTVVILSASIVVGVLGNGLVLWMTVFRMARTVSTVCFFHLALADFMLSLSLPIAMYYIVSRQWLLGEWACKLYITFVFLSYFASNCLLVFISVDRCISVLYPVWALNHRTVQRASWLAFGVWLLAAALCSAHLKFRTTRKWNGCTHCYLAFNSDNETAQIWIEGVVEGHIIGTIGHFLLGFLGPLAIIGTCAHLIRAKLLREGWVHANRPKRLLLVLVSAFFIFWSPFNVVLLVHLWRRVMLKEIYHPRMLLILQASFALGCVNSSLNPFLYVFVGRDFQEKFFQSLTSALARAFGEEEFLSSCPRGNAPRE

The assay deals with Probable G-protein coupled receptor 32 (Homo sapiens) (UniProt O75388). Put plainly: qHTS for Agonists of Human Resolvin D1 Receptor DRV1. Also: 0% is about no effect. The conditions noted are these: CHO-K1 GPR32 beta-arrestin PathHunter luminescence, 90 min; at 76.9 µM; stronger effect = higher value; zero percent set by DMSO-only wells. In a few lines:
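Cells are plated overnight, treated with compounds in DMSO for 90 minutes at 37 °C, and developed with PathHunter detection reagent for 1 hour before luminescence is read; signal reflects beta-arrestin binding to GPR32 in engineered CHO-K1 cells.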
In general terms: qHTS replaces the single test concentration by a dilution series.
With `COCCCNC(=O)Cn1c(=O)n(-c2ccc(C)cc2)c(=O)c2c1c1cc(C)ccc1n2C`, the activation is inactive: 14.1%.
Regarding `Cc1ccc(NC(=O)CN2CCCN(Cc3cc(C)ccc3C)S2(=O)=O)c(Cl)c1`, the activation was inactive: -21.4%.
Take `COc1cccc(N2CCN(C(=O)C3CCC(CNS(=O)(=O)c4ccc(Br)s4)CC3)CC2)c1` (centres undefined): the activation is inactive: 48.4%.
Take `Cc1ccc(Cl)cc1N1CCN(C(=O)c2cn(C3CCCCC3)c(=O)c3c2c2ccccc2n3C)CC1`: the activation is inactive: -2.08%.
With `COc1ccc(NC(=O)CSc2nnc(-c3ccc(C)cc3)o2)cc1`, the activation is inactive: -6.89%.
The value for `CN(C)c1ccc(C(CNC(=O)COc2ccc(Cl)cc2)N2CCOCC2)cc1` (centres undefined) was inactive: -15.2%; that for `COc1cccc(-n2ccnc2SCC(=O)Nc2cccc(C)c2C)c1` was inactive: 15.7%.
`CCCC(=O)NCC(c1ccc2c(c1)OCO2)N1CCN(c2ccc(F)cc2)CC1` (centres undefined): the activation was inactive: -21.4%.
`CCc1ccc(NC(=O)Cn2cnc3sc(C)c(S(=O)(=O)N4CCC(C)CC4)c3c2=O)cc1`: the activation was inactive: -6%.
The value for `COc1ccc(-c2nc3c(C#N)c[nH]n3c2NC2CCCCC2)c(OC)c1` was inactive: -23.5%; that for `COc1ccc(-n2ncc(C(=O)NCc3ccccc3)c2C2CCN(C(=O)OC(C)(C)C)CC2)cc1` was inactive: -19.4%.
As for `COc1ccc(CCNC(=O)CCn2c(=O)c3cccn3c3ccc(F)cc32)c(OC)c1OC`, the figure is inactive: -20%.
The value for `Cc1ccc(OCc2nc3ccccc3n2CC(C)C)cc1` was inactive: -24.7%.
As to `CCOc1ccccc1CNC(=O)Nc1cn(CC(C)C)c(=O)c2ccccc12`, the activation was inactive: -32.6%.
In the case of `Cc1cc2c(cc1S(=O)(=O)NCc1ccc(N(C)C)cc1)OCC(=O)N2`, the activation is inactive: -1.72%.
With `CC(Oc1ccccc1)C(=O)Nc1nc2ccc(S(N)(=O)=O)cc2s1` (centres undefined), the activation is inactive: -25.2%.
Turning to `CC1(c2ccc(Cl)cc2)CC(C)(C)N(C(=O)c2ccccc2)c2ccccc21` (centres undefined), the activation is inactive: 8.59%.
On to `Cc1ccc(CN2CCC(CNc3ncnc4onc(-c5ccc(Cl)cc5)c34)CC2)cc1`, for which the activation is inactive: 16.9%.
The value for `CCCN(C(=O)c1cc2c(s1)-c1ccccc1SC2)c1ccccc1F` was inactive: -1.84%.
The value for `COc1ccc(N(CC(=O)NC(C)c2ccccc2)S(=O)(=O)c2c(C)noc2C)cc1` (centres undefined) was inactive: -23.5%; that for `CC1CN(C(=O)Nc2ccc(C(=O)NCCc3ccccc3)cc2)c2ccccc2S1` (centres undefined) was inactive: -17.3%; that for `O=C(CSc1nccn1Cc1ccccc1)NCc1ccc(F)cc1` was inactive: 15.5%.
For `Cc1cc(C)nc(NS(=O)(=O)c2ccc(NC(=O)COc3ccc(Cl)cc3C)cc2)n1`, the activation is inactive: 34.8%.
The value for `CCOc1ccc(C(=O)Nc2cc(-c3nc4ccccc4o3)ccc2C)cc1Cl` was inactive: 13.5%; that for `CCN(Cc1ccccc1)C(=O)c1c(C)oc2ncn(C)c(=O)c12` was inactive: -7.76%; that for `CCOc1cc(-c2ccc(OC(=O)c3ccccc3F)cc2)cc(=O)c2c(C)oc(C)c12` was inactive: -21.7%.
As for `O=C(CCCCCCC(=O)Nc1ccccc1)NO`, the figure is inactive: 0.441%.
As for `COc1ccc(-n2nc3ccc(NC(=O)c4ccc(-c5cc(Cl)ccc5Cl)o4)cc3n2)cc1`, the figure is inactive: -8.38%.
Turning to `CCc1ccc2c(-c3cccc(Cl)c3)nc(=O)n(CC)c2n1`, the activation was inactive: -5.33%.
Take `COc1ccc(-n2ccnc(NCc3ccc(Cl)cc3)c2=O)cc1`: the activation was active: 60.3%.
The value for `COc1ccc(NC(=O)CCc2nnc3n(C)c(=O)c4sccc4n23)cc1` was inactive: -8.7%; that for `C=CCc1ccccc1OCCSc1nc(-c2ccc(C(C)(C)C)cc2)nc2cc(=O)[nH]n12` was inactive: -1.93%; that for `Clc1cccc(N2CCN(c3nc4ccccc4n4cnnc34)CC2)c1` was inactive: -13.2%.
The value for `Cc1cc(C)cc(NC(=O)CCC(=O)N2Cc3ccccc3Oc3ncccc32)c1` was inactive: -14.2%.
The value for `CCN(c1cc(C)cc(C)c1)S(=O)(=O)c1nnc(NC(=O)C2CCCCC2)s1` was inactive: -18.4%; that for `O=C(Nc1ccc(Br)c2cccnc12)c1cccc2ccccc12` was inactive: 31.5%.
`CC(C)ON([C@@H](C(=O)NO)C(C)C)S(=O)(=O)c1ccc(-c2ccccc2)cc1`: the activation was inactive: -9.02%.
As for `COc1cccc(NC(=O)C2CCCN(S(=O)(=O)c3c(C)[nH]c(=O)[nH]c3=O)C2)c1` (centres undefined), the figure is inactive: 6.06%.
As for `CCCc1cnc2c(c1SCC(=O)N(C)c1ccccc1)c(=O)n(C)c(=O)n2C`, the activation was inactive: -26.1%.
As to `Cc1c(Cl)ccc2sc(NC(=O)c3ccc(S(=O)(=O)N4CCCc5ccccc54)cc3)nc12`, the activation was inactive: -10.5%.
`Cc1c(Cl)cccc1-c1ccc(CNc2ccc3[nH]c(=O)[nH]c3c2)o1`: the activation is inactive: 19.7%.
Take `Cc1ccc(CCNC(=O)c2cc3sccc3n2Cc2ccc(C)cc2)cc1`: the activation was inactive: -4.97%.
Turning to `Cc1cc(C)cc(-n2c(SCC(=O)N3CCCCC3)nc3c([nH]c4ccccc43)c2=O)c1`, the activation is inactive: 5.06%.
As for `CC1CCN(S(=O)(=O)c2ccc3c(c2)oc(=O)n3CC(=O)NCc2ccc(F)cc2)CC1`, the figure is inactive: 17.8%; as for `COc1cc2ccccc2cc1C(=O)Nc1ccc2oc(-c3ccc(F)cc3)nc2c1`, inactive: 8.56%.
As for `CCc1ccccc1NC(=O)c1nnn(-c2ccc(F)cc2)c1C`, the figure is inactive: -5.59%.
As for `CCOc1ccc(NC(=O)Cn2c(=O)n(Cc3ccco3)c(=O)c3oc4ccccc4c32)cc1`, the figure is inactive: -16.5%.
On to `COc1ccc(NC(=O)c2oc3ccccc3c2NC(=O)c2cccc(F)c2)c(OC)c1`, for which the activation is inactive: 13.8%.
The value for `CC(CCc1ccccc1)NC(=O)Cn1ncc2c3ccccc3n(Cc3ccc(F)cc3)c2c1=O` (centres undefined) was inactive: -10.2%; that for `CCCn1c(=O)c2sccc2n2c(CCCC(=O)NCCc3ccc(Cl)cc3)nnc12` was inactive: -11.3%.
Consider `Cc1ccc(CNC(=O)c2cc3sccc3n2Cc2ccc(Cl)cc2)cc1`, for which the activation is inactive: 42.5%.
As to `CC(C)c1ccc(S(=O)(=O)c2nnn3c2nc(NCCc2ccccc2)c2sccc23)cc1`, the activation was inactive: -13.5%.
`Cc1nn(C(=O)c2cccc([N+](=O)[O-])c2C)c(C)c1S(=O)(=O)N1CCOCC1`: the activation was inactive: -2.09%.
On to `CC(=O)Nc1ccc(S(=O)(=O)NCC2CCC(C(=O)NCCc3ccccc3)CC2)cc1` (centres undefined), for which the activation was inactive: 0.178%.

These data come from PubChem BioAssay AID1346428 (National Center for Advancing Translational Sciences (NCATS), 2018).
